Results on 54 sequences are retold here after article PMC7819943, “Rice protein-binding microarrays: a tool to detect cis-acting elements near promoter regions in rice”.

The other results are listed elsewhere or left out.

The target in the assay is T1, OsWOX13 (Oryza sativa, UniProt Q5QMM3 1-267).
T1 sequence: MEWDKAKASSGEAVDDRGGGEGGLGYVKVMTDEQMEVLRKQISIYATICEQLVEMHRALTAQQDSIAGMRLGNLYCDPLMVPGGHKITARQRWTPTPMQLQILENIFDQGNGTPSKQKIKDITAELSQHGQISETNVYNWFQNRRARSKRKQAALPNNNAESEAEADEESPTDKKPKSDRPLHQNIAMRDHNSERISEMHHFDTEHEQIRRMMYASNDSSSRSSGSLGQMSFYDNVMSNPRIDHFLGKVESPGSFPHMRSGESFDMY
The assay is described as follows: protein-binding microarray (RPBM); PBS, 2% BSA, 51.3 ng/ul salmon testes DNA, 50 uM zinc acetate, 200 nM TF, 25 C, 1 h; high values mean tight binding. Conditions: protein: recombinant; tags: N-terminal polyhistidine and DsRed monomer fusion (pET32a); label: CyDye5-dUTP incorporated in the synthesized complementary strand; 3' TTTTT single-stranded linker to array surface; dsDNA, one strand shown. Put shortly: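 An Axon 4000B scanner gave the binding signal as per-feature fluorescence intensity in arbitrary units. This followed washing of a custom Agilent array that had been incubated for 1 h at 25 °C with 200 nM protein in PBS, 2% BSA, salmon testes DNA and 50 µM zinc acetate. The proteins were transcription factors fused at the N-terminus to polyhistidine and DsRed, expressed in E. coli BL21-CodonPlus and purified on Ni–NTA.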
Turning to “CATTAATCAATCTAAACGTGCAACCTCCCAACGTGCAAGCCGGAGTCACCTAGTGCAG”, the binding signal is 23800 fluorescence intensity (a.u.).

On to “TTAAATTTAATTAAATTTAAAGCAGTTTGATTTTGACCAACGGAGTCACCTAGTGCAG”, for which the binding signal was 56000 fluorescence intensity (a.u.).

For “GGTCGATTGGATTCCCCTTCGCTGGCATCCGCTCGTCCAGCGGAGTCACCTAGTGCAG”, the binding signal was 3340 fluorescence intensity (a.u.).

Regarding “AAGTATATTAACTAATTTAGTTAGTTAAGAGTAGACTAAACGGAGTCACCTAGTGCAG”, the binding signal is 5440 fluorescence intensity (a.u.).

Consider “AAGTTATTGATGTATGAGATTTATTTTGTTGGAAGATAATCGGAGTCACCTAGTGCAG”, for which the binding signal was 7910 fluorescence intensity (a.u.).

Turning to “ATGATTTGAGTCAATAAGTGATGTATTTCCAGAGAGAGAACGGAGTCACCTAGTGCAG”, the binding signal was 29400 fluorescence intensity (a.u.).

Regarding “GCATGATTACATCATTGCACTGGACTCAATTGGTAATGCACGGAGTCACCTAGTGCAG”, the binding signal was 20700 fluorescence intensity (a.u.).

With “TTCTGGAAATGGAGGATGATTTGCTGTGAGGATATAGTTGCGGAGTCACCTAGTGCAG”, the binding signal is 7980 fluorescence intensity (a.u.).

Regarding “ATGCATGTTCAATTGATTGTCATGTTATGTTCATTATAGACGGAGTCACCTAGTGCAG”, the binding signal was 15100 fluorescence intensity (a.u.).

In the case of “TAAATTAATTAGGCTTAATAAATTCGTCGACTACACTTAACGGAGTCACCTAGTGCAG”, the binding signal was 30000 fluorescence intensity (a.u.).

“CTACTAATTTAGTATGATAGGTTTATTTTGGTAATCAAGCCGGAGTCACCTAGTGCAG”: the binding signal was 30000 fluorescence intensity (a.u.).

Take “TTGATTATTTCAGTTCATGACTCGGCATAGCACCAGCAAACGGAGTCACCTAGTGCAG”: the binding signal was 7090 fluorescence intensity (a.u.).

“AGTTCAGATAAGCATCATGATTGGTGTTCAGATATCCAGACGGAGTCACCTAGTGCAG”: the binding signal is 9740 fluorescence intensity (a.u.).

As for “CTGGATTGATTGGGAGTGTTGGGTTTCGGGCTAGATCTGGCGGAGTCACCTAGTGCAG”, the binding signal is 65200 fluorescence intensity (a.u.).

“TCTTCATTAATTGGACTAATTACAGATGGCTGTTTAGGAACGGAGTCACCTAGTGCAG”: the binding signal is 45300 fluorescence intensity (a.u.).

In the case of “TATAATCAAAGGTAACTGTAATATTATTCAATTTAAAGCACGGAGTCACCTAGTGCAG”, the binding signal is 4560 fluorescence intensity (a.u.).

As to “CCCTTAACTGACGGAGAGCGACGCCGCAACACCACATCCACGGAGTCACCTAGTGCAG”, the binding signal is 31700 fluorescence intensity (a.u.).

As for “CTACATGTAATTTATATCAACATTCTAGTGAATAATCTTTCGGAGTCACCTAGTGCAG”, the binding signal is 3800 fluorescence intensity (a.u.).

Consider “CAAATCAATCCGTTTCATGCATCATCATCCTCCTGTCGATCGGAGTCACCTAGTGCAG”, for which the binding signal is 4790 fluorescence intensity (a.u.).

For the sequence “TGTTAATTAACCTTTACCTTGTGTGCACGACAACTCATACCGGAGTCACCTAGTGCAG”, the binding signal is 37100 fluorescence intensity (a.u.).

For “ACGAATCTAATGAGCCTAATTAATCCATGATTAGCCTATGCGGAGTCACCTAGTGCAG”, the binding signal was 21200 fluorescence intensity (a.u.).

As to “TTTATATAATTTCAAATTTTGTTACAGCATCAAAGGTTATCGGAGTCACCTAGTGCAG”, the binding signal is 11200 fluorescence intensity (a.u.).

For “AGTTTGATCAAATTTATAGAAAATATATTATTATTTTCAACGGAGTCACCTAGTGCAG”, the binding signal was 5640 fluorescence intensity (a.u.).

As to “TAGATTGACTATAGATGAATTGGAGCTAGTAATGGTCAATCGGAGTCACCTAGTGCAG”, the binding signal was 25200 fluorescence intensity (a.u.).

With “TTATAGATTATAATAATCTATCGTAATAATCTACTTATTTCGGAGTCACCTAGTGCAG”, the binding signal was 8120 fluorescence intensity (a.u.).

“CCATAATTACAGTCTGAAGATTTTATGCAGTCCAATAACCCGGAGTCACCTAGTGCAG”: the binding signal is 23300 fluorescence intensity (a.u.).

In the case of “CCTGATTGACAGAAGGAGATACCCCAACAACAAAAGAATGCGGAGTCACCTAGTGCAG”, the binding signal is 48800 fluorescence intensity (a.u.).

Turning to “CTTCACTCAATTGGACAGTCTACTGGTGACATCGATGAACCGGAGTCACCTAGTGCAG”, the binding signal was 4340 fluorescence intensity (a.u.).

On to “GTTTGCACTAATTTGACACGAACACTTATTTCACACGTGGCGGAGTCACCTAGTGCAG”, for which the binding signal is 9930 fluorescence intensity (a.u.).

Consider “ATTCATTCATTCAAATTACAGCATATATGAGTCATACAACCGGAGTCACCTAGTGCAG”, for which the binding signal is 3360 fluorescence intensity (a.u.).

As for “ATACATTAATTGATTTAGGTGGATTTATCATCAGAGCCACCGGAGTCACCTAGTGCAG”, the binding signal was 31200 fluorescence intensity (a.u.).

As for “ATCATAATGTAAACATGAATGTAATTTGCTTGCCCTATGCCGGAGTCACCTAGTGCAG”, the binding signal was 10100 fluorescence intensity (a.u.).

“ACAACATTCCAATTGATTAATGTATGGCTGATAACCTATACGGAGTCACCTAGTGCAG”: the binding signal was 8740 fluorescence intensity (a.u.).

For the sequence “AGTGATTAGCCGGATGACGAAGCTTCGTGCGGACGCGGCCCGGAGTCACCTAGTGCAG”, the binding signal was 34500 fluorescence intensity (a.u.).

Regarding “GCAGGATTGGAATTCCCTTCCCCTTCTGAAACCAGCATAACGGAGTCACCTAGTGCAG”, the binding signal was 9320 fluorescence intensity (a.u.).

For the sequence “TTAATTGTATTAATATTATATGGTCTAGTTAAGGTGAAATCGGAGTCACCTAGTGCAG”, the binding signal was 3350 fluorescence intensity (a.u.).

Take “TCCAAACCCCAATCTTGATTTGTCATCTGGCCGGTTACCTCGGAGTCACCTAGTGCAG”: the binding signal is 5700 fluorescence intensity (a.u.).

Consider “CATCATCAAATTAATAGATAGACAGAAAGTATATATCGACCGGAGTCACCTAGTGCAG”, for which the binding signal was 34300 fluorescence intensity (a.u.).

As to “CACAATTGGAATTTACTAAACCGGGTCAAGAAAGTTGAGACGGAGTCACCTAGTGCAG”, the binding signal is 8910 fluorescence intensity (a.u.).

For “AGTTGGTGATTGAATATGCAGTTATCATGTCATGCATAATCGGAGTCACCTAGTGCAG”, the binding signal was 32500 fluorescence intensity (a.u.).

Take “TTATCTATTATATAATTTATTATTATTATTTTGTCGCCTCCGGAGTCACCTAGTGCAG”: the binding signal was 9180 fluorescence intensity (a.u.).

As to “ACATATCTTATCTTAAGATTGACGAAGTCACCACGACTCCCGGAGTCACCTAGTGCAG”, the binding signal is 6460 fluorescence intensity (a.u.).

On to “ATAATTGATTCCTGCTTCTTGAAAACAATTTGTTTGCTTTCGGAGTCACCTAGTGCAG”, for which the binding signal is 47000 fluorescence intensity (a.u.).

For the sequence “ATTGGATAAATTGATTATCATCAATTTTGGTTGAATATGACGGAGTCACCTAGTGCAG”, the binding signal was 28100 fluorescence intensity (a.u.).

On to “ATTAATCACGCGTTAATGGACCGCTCCGTTTTCCGTGCGACGGAGTCACCTAGTGCAG”, for which the binding signal was 18700 fluorescence intensity (a.u.).

With “TCGAGCAGATCAATCAACCAACGGGTCGAGAGGATTTAGTCGGAGTCACCTAGTGCAG”, the binding signal was 4870 fluorescence intensity (a.u.).

Take “AAAATAAGTAACTGCCAATTATTAACAGAGCGGCGATCATCGGAGTCACCTAGTGCAG”: the binding signal was 10800 fluorescence intensity (a.u.).

With “ACAAACTAAAATTATTTAACATCGAAGGTAGTCTTTGGCACGGAGTCACCTAGTGCAG”, the binding signal is 6310 fluorescence intensity (a.u.).

Turning to “TATAAATTTAGTTAAATATATATAAAGAAGTTTGACTTATCGGAGTCACCTAGTGCAG”, the binding signal was 9160 fluorescence intensity (a.u.).

Regarding “TATTAATCAATTAATGTTCCATGGAGATACTGAGCTCAGCCGGAGTCACCTAGTGCAG”, the binding signal is 18600 fluorescence intensity (a.u.).

“CAGTTGATTGGCCGACGTTATGATATGGTAGCTGAATTAGCGGAGTCACCTAGTGCAG”: the binding signal is 44100 fluorescence intensity (a.u.).

As to “ATAAACGTGTTAATTTGCTAATGAACACCGCGCCGATTAACGGAGTCACCTAGTGCAG”, the binding signal is 5730 fluorescence intensity (a.u.).

As to “CTTCAAATCAAGAGATTTAATTTAAGTCGATCTCAATCCCCGGAGTCACCTAGTGCAG”, the binding signal was 18900 fluorescence intensity (a.u.).

With “GCGCCATCCCTAATTGTCAGTTTTCCCATTTTGAGCTTCCCGGAGTCACCTAGTGCAG”, the binding signal was 8550 fluorescence intensity (a.u.).
